# Some of the results follow.
# B1: Dectin-1 CTLD (Mus musculus), Q6QLQ4 (protein)
# chain: MKYHSHIENLDEDGYTQLDFSTQDIHKRPRGSEKGSRAPSSPWRPIAVGLGILCFVVVVVAAVLGALAFWRHNSGRNPEEKDNFLSRNKENHKPTESSLDEKVAPSKASQTTGGFSQSCLPNWIMHGKSCYLFSFSGNSWYGSKRHCSQLGAHLLKIDNSKEFEFIESQTSSHRINAFWIGLSRNQSEGPWFWEDGSAFFPNSFQVRNTVPQESLLHNCVWIHGSEVYNQICNTSSYSICEKEL
# Legend:
# Assay in all cases: glycan array binding signal (z-score within array); higher = stronger binding
# Settings in all cases: glycan notation: IUPAC condensed, linker removed
# Fuc(a1-2)Gal = molecular target: Fuc(a1-2)Gal
# In short: (§1)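 Glycan array binding is given as a within-array Z-score, which can be read as non-binding when negative. The arrays, 3228 of them, came from the Consortium for Functional Glycomics database and were retained only where the protein sequence was available. Z-scores were averaged across arrays of the same protein sequence at different concentrations or buffers and across linkers.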
# Fuc(a1-2)Gal(b1-3)GalNAc = molecular target: Fuc(a1-2)Gal(b1-3)GalNAc
# In short: as §1
# [1] = molecular target: Fuc(a1-2)Gal(b1-3)GalNAc(b1-3)Gal
# In short: as §1
# [2] = molecular target: Fuc(a1-2)Gal(b1-3)GalNAc(b1-3)Gal(a1-4)Gal(b1-4)Glc
# In short: as §1
# [3] = molecular target: Fuc(a1-2)Gal(b1-3)GalNAc(b1-3)Gal(b1-4)Glc
# In short: as §1
# [4] = molecular target: Fuc(a1-2)Gal(b1-3)GalNAc(b1-4)[Neu5Ac(a2-3)]Gal(b1-4)Glc
# In short: as §1
# [5] = molecular target: Fuc(a1-2)Gal(b1-3)[Fuc(a1-4)]GlcNAc
# In short: as §1
# Fuc(a1-2)Gal(b1-4)Glc = molecular target: Fuc(a1-2)Gal(b1-4)Glc
# In short: as §1
# Fuc(a1-2)Gal(b1-4)GlcNAc = molecular target: Fuc(a1-2)Gal(b1-4)GlcNAc
# In short: as §1
# [6] = molecular target: Fuc(a1-2)Gal(b1-4)GlcNAc(b1-3)Gal(b1-4)GlcNAc
# In short: as §1
# [7] = molecular target: Fuc(a1-2)Gal(b1-4)GlcNAc(b1-3)Gal(b1-4)GlcNAc(b1-3)Gal(b1-4)GlcNAc
# In short: as §1
# [8] = molecular target: Fuc(a1-2)Gal(b1-4)[Fuc(a1-3)]GalNAc(b1-3)Gal(b1-4)[Fuc(a1-3)]GlcNAc
# In short: as §1
# [9] = molecular target: Fuc(a1-2)Gal(b1-4)[Fuc(a1-3)]GalNAc(b1-3)Gal(b1-4)[Fuc(a1-3)]GlcNAc(b1-3)Gal(b1-4)[Fuc(a1-3)]GalNAc
# In short: as §1
# [10] = molecular target: Fuc(a1-2)Gal(b1-4)[Fuc(a1-3)]GlcNAc
# In short: as §1
# Fuc(a1-2)GlcNAc = molecular target: Fuc(a1-2)GlcNAc
# In short: as §1
# Fuc(a1-2)[Gal(a1-3)]Gal = molecular target: Fuc(a1-2)[Gal(a1-3)]Gal
# In short: as §1
# [11] = molecular target: Fuc(a1-2)[Gal(a1-3)]Gal(b1-3)GlcNAc
# In short: as §1
# [12] = molecular target: Fuc(a1-2)[Gal(a1-3)]Gal(b1-4)Glc
# In short: as §1
# [13] = molecular target: Fuc(a1-2)[Gal(a1-3)]Gal(b1-4)GlcNAc
# In short: as §1
# [14] = molecular target: Fuc(a1-2)[Gal(a1-3)]Gal(b1-4)[Fuc(a1-3)]GlcNAc
# In short: as §1
# [15] = molecular target: Fuc(a1-2)[Gal(a1-4)]Gal(b1-4)GalNAc
# In short: as §1
# [16] = molecular target: Fuc(a1-2)[GalNAc(a1-3)]Gal
# In short: as §1
# [17] = molecular target: Fuc(a1-2)[GalNAc(a1-3)]Gal(b1-3)GlcNAc
# In short: as §1
# [18] = molecular target: Fuc(a1-2)[GalNAc(a1-3)]Gal(b1-4)Glc
# In short: as §1
# [19] = molecular target: Fuc(a1-2)[GalNAc(a1-3)]Gal(b1-4)GlcNAc
# In short: as §1
# [20] = molecular target: Fuc(a1-2)[GalNAc(a1-3)]Gal(b1-4)[Fuc(a1-3)]GlcNAc
# In short: as §1
# [21] = molecular target: Fuc(a1-2)[GalNAc(a1-4)]Gal(b1-4)GlcNAc
# In short: as §1
# Fuc(a1-3)GlcNAc = molecular target: Fuc(a1-3)GlcNAc
# In short: as §1
# [22] = molecular target: Fuc(a1-3)[Gal(b1-4)]GlcNAc
# In short: as §1
# [23] = molecular target: Fuc(a1-3)[Gal(b1-4)]GlcNAc(b1-4)Gal(b1-4)[Fuc(a1-3)]GlcNAc
# In short: as §1
# [24] = molecular target: Fuc(a1-3)[Gal(b1-4)]GlcNAc(b1-4)Gal(b1-4)[Fuc(a1-3)]GlcNAc(b1-4)Gal(b1-4)[Fuc(a1-3)]GlcNAc
# In short: as §1
# [25] = molecular target: Fuc(a1-3)[Gal3S(b1-4)]GlcNAc
# In short: as §1
# [26] = molecular target: Fuc(a1-3)[GalNAc(b1-4)]Gal(b1-4)GlcNAc
# In short: as §1
# Fuc(a1-4)GlcNAc = molecular target: Fuc(a1-4)GlcNAc
# In short: as §1
# Fuc(b1-3)GlcNAc = molecular target: Fuc(b1-3)GlcNAc
# In short: as §1
# Gal(a1-2)Gal = molecular target: Gal(a1-2)Gal
# In short: as §1
# Gal(a1-3)Gal = molecular target: Gal(a1-3)Gal
# In short: as §1
# Gal(a1-3)Gal(b1-3)Glc = molecular target: Gal(a1-3)Gal(b1-3)Glc
# In short: as §1
# Gal(a1-3)Gal(b1-3)GlcNAc = molecular target: Gal(a1-3)Gal(b1-3)GlcNAc
# In short: as §1
# Gal(a1-3)Gal(b1-4)GlcNAc = molecular target: Gal(a1-3)Gal(b1-4)GlcNAc
# In short: as §1
# [27] = molecular target: Gal(a1-3)Gal(b1-4)[Fuc(a1-3)]GalNAc
# In short: as §1
# Gal(a1-3)GlcNAc = molecular target: Gal(a1-3)GlcNAc
# In short: as §1
# [28] = molecular target: Gal(a1-3)[Gal(a1-4)]Gal(b1-4)GlcNAc
# In short: as §1
# Gal(a1-4)Gal(b1-4)Gal = molecular target: Gal(a1-4)Gal(b1-4)Gal
# In short: as §1
# Gal(a1-4)Gal(b1-4)GalNAc = molecular target: Gal(a1-4)Gal(b1-4)GalNAc
# In short: as §1
# Gal(a1-4)GlcNAc = molecular target: Gal(a1-4)GlcNAc
# In short: as §1
# Gal(a1-6)Glc = molecular target: Gal(a1-6)Glc
# In short: as §1
# Gal(b1-2)Gal = molecular target: Gal(b1-2)Gal
# In short: as §1
# Gal(b1-3)Gal = molecular target: Gal(b1-3)Gal
# In short: as §1
# Gal(b1-3)GalNAc = molecular target: Gal(b1-3)GalNAc
# In short: as §1
# [29] = molecular target: Gal(b1-3)GalNAc(b1-3)Gal(a1-4)Gal(b1-4)Glc
# In short: as §1
# [30] = molecular target: Gal(b1-3)GalNAc(b1-3)Gal(b1-4)Glc
# In short: as §1
# [31] = molecular target: Gal(b1-3)GalNAc(b1-3)Gal(b1-4)GlcNAc
# In short: as §1
# [32] = molecular target: Gal(b1-3)GalNAc(b1-4)Gal(b1-4)Glc
# In short: as §1
# [33] = molecular target: Gal(b1-3)GalNAc(b1-4)[Neu5Ac(a2-3)]Gal(b1-4)Glc
# In short: as §1
# [34] = molecular target: Gal(b1-3)[Fuc(a1-4)]GlcNAc
# In short: as §1
# [35] = molecular target: Gal(b1-3)[Fuc(a1-4)]GlcNAc(b1-3)Gal(b1-4)GlcNAc
# In short: as §1
# [36] = molecular target: Gal(b1-3)[Fuc(a1-4)]GlcNAc(b1-3)Gal(b1-4)[Fuc(a1-3)]GlcNAc
# In short: as §1
# [37] = molecular target: Gal(b1-3)[GlcNAc(b1-6)]GalNAc
# In short: as §1
# [38] = molecular target: Gal(b1-3)[GlcNAc(b1-6)]GlcNAc
# In short: as §1
binder,measurement,setting,value
B1,glycan array binding signal (z-score),Fuc(a1-2)Gal,-0.355
same,glycan array binding signal (z-score),Fuc(a1-2)Gal(b1-3)GalNAc,-0.228
same,glycan array binding signal (z-score),[1],-0.117
same,glycan array binding signal (z-score),[2],-0.475
same,glycan array binding signal (z-score),[3],-0.155
same,glycan array binding signal (z-score),[4],-0.029
same,glycan array binding signal (z-score),[5],0.129
same,glycan array binding signal (z-score),Fuc(a1-2)Gal(b1-4)Glc,-0.41
same,glycan array binding signal (z-score),Fuc(a1-2)Gal(b1-4)GlcNAc,-0.083
same,glycan array binding signal (z-score),[6],-0.342
same,glycan array binding signal (z-score),[7],-0.18
same,glycan array binding signal (z-score),[8],-0.438
same,glycan array binding signal (z-score),[9],-0.367
same,glycan array binding signal (z-score),[10],-0.473
same,glycan array binding signal (z-score),Fuc(a1-2)GlcNAc,-0.205
same,glycan array binding signal (z-score),Fuc(a1-2)[Gal(a1-3)]Gal,-0.364
same,glycan array binding signal (z-score),[11],-0.245
same,glycan array binding signal (z-score),[12],-0.581
same,glycan array binding signal (z-score),[13],0.031
same,glycan array binding signal (z-score),[14],-0.028
same,glycan array binding signal (z-score),[15],-0.201
same,glycan array binding signal (z-score),[16],-0.311
same,glycan array binding signal (z-score),[17],-0.341
same,glycan array binding signal (z-score),[18],-0.46
same,glycan array binding signal (z-score),[19],-0.431
same,glycan array binding signal (z-score),[20],-0.372
same,glycan array binding signal (z-score),[21],-0.297
same,glycan array binding signal (z-score),Fuc(a1-3)GlcNAc,-0.307
same,glycan array binding signal (z-score),[22],-0.312
same,glycan array binding signal (z-score),[23],-0.055
same,glycan array binding signal (z-score),[24],-0.306
same,glycan array binding signal (z-score),[25],0.129
same,glycan array binding signal (z-score),[26],-0.344
same,glycan array binding signal (z-score),Fuc(a1-4)GlcNAc,-0.141
same,glycan array binding signal (z-score),Fuc(b1-3)GlcNAc,0.143
same,glycan array binding signal (z-score),Gal(a1-2)Gal,1.6
same,glycan array binding signal (z-score),Gal(a1-3)Gal,-0.137
same,glycan array binding signal (z-score),Gal(a1-3)Gal(b1-3)Glc,-0.468
same,glycan array binding signal (z-score),Gal(a1-3)Gal(b1-3)GlcNAc,-0.273
same,glycan array binding signal (z-score),Gal(a1-3)Gal(b1-4)GlcNAc,-0.388
same,glycan array binding signal (z-score),[27],-0.466
same,glycan array binding signal (z-score),Gal(a1-3)GlcNAc,-0.341
same,glycan array binding signal (z-score),[28],0.011
same,glycan array binding signal (z-score),Gal(a1-4)Gal(b1-4)Gal,-0.184
same,glycan array binding signal (z-score),Gal(a1-4)Gal(b1-4)GalNAc,-0.266
same,glycan array binding signal (z-score),Gal(a1-4)GlcNAc,-0.51
same,glycan array binding signal (z-score),Gal(a1-6)Glc,-0.365
same,glycan array binding signal (z-score),Gal(b1-2)Gal,-0.384
same,glycan array binding signal (z-score),Gal(b1-3)Gal,-0.471
same,glycan array binding signal (z-score),Gal(b1-3)GalNAc,0.816
same,glycan array binding signal (z-score),[29],-0.227
same,glycan array binding signal (z-score),[30],-0.21
same,glycan array binding signal (z-score),[31],0.343
same,glycan array binding signal (z-score),[32],0.033
same,glycan array binding signal (z-score),[33],-0.16
same,glycan array binding signal (z-score),[34],-0.213
same,glycan array binding signal (z-score),[35],-0.361
same,glycan array binding signal (z-score),[36],-0.154
same,glycan array binding signal (z-score),[37],-0.202
same,glycan array binding signal (z-score),[38],-0.058
